From publication PMC6919601, “Identification of Plasmodium dipeptidyl aminopeptidase allosteric inhibitors by high throughput screening” (PLoS ONE, 2019) come the findings set out here.

The campaign covered roughly 110,000 compounds. About 230 (0.21%) showed an effect of 50% or more. Some of the results follow.
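Note: 30 min substrate incubation versus DMSO and 10 µM JCP410 controls.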

For this experiment, the target named is DPAP1 (Plasmodium falciparum, UniProt Q8IIJ9). Nature of the experiment: primary screen, percent inhibition; read by cleavage of a fluorogenic dipeptide substrate; higher = more effect of the substance. Further details: species or system P. falciparum D10 trophozoite lysates; single well.
DPAP1, sequence (Q8IIJ9 whole entry, looked up): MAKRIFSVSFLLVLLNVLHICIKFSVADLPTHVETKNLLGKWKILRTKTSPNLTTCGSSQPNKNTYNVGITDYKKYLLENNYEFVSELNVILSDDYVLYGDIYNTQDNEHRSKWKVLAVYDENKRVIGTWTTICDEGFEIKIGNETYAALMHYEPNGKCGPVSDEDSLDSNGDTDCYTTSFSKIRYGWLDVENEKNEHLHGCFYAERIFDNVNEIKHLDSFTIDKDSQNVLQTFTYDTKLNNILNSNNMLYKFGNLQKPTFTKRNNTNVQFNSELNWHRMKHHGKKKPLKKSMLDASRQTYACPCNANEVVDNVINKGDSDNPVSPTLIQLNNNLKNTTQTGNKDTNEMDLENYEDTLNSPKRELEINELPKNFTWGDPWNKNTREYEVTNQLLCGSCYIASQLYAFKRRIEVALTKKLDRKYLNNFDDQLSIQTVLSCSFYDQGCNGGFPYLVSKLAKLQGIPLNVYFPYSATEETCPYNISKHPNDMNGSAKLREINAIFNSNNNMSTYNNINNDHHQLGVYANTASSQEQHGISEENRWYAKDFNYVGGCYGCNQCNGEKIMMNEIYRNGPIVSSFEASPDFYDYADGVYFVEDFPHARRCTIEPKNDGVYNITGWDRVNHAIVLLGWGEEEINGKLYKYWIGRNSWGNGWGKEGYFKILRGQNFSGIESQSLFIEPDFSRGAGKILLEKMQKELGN
On to `CS(=O)(=O)C1=NN2C(=N)/C(=C\c3ccc(Br)o3)C(=O)N=C2S1`, for which the “% Inhibition @ 10 uM” value is -3.58%.
With `N#Cc1nc(COc2ccc(Cl)cc2)oc1NCc1ccc(F)cc1`, the “% Inhibition @ 10 uM” value was 0.343%.
Next, `COc1cccc2c(Cl)c(C/C=C(/C)Cl)c(C)nc12`: -4.03%.
Next, `Cc1cc2c(C(F)(F)F)cc(=O)oc2c2c1NCCC2`: -2.91%; `COc1ccc(/C=C/C(=O)N2CCC(CN3C(=O)c4cccc5cccc(c45)C3=O)CC2)cc1OC`: -3.98%.
As for `COc1ccc2[nH]c(O)c(N=NS(=O)(=O)c3ccc(C)cc3)c2c1`, the “% Inhibition @ 10 uM” value is -1.93%.
On to `O=C(NCCC1=CCCCC1)c1cnn2c(C(F)(F)F)cc(-c3ccccc3)nc12`, for which the “% Inhibition @ 10 uM” value is 4.36%.
Consider `N#Cc1c(-c2ccc(F)cc2)cc(C2CC2)nc1S`, for which the “% Inhibition @ 10 uM” value is recorded as 4.63%.
For the molecule `Cc1ccc(C2=C/C(=C/c3ccc(Cl)cc3)C(=O)O2)cc1`, the “% Inhibition @ 10 uM” value was 1.84%.
With `Cc1ccc(NC(=O)COc2ccccc2C)nc1`, the “% Inhibition @ 10 uM” value was -2.29%.
Regarding `CCCN(Cc1ccccc1)C(=O)c1ccc(N2C(=O)CCC2=O)cc1`, the “% Inhibition @ 10 uM” value is -7.75%.
Take `COc1ccc(OC)c(N2C(=O)CC(N3CCc4ccccc4C3)C2=O)c1` (stereo not drawn): the “% Inhibition @ 10 uM” value is given as -1.95%.
With `COc1ccc2cc3cc(C(=O)NCC4CCCO4)oc3nc2c1` (stereo not drawn) the figure was 1.9%; with `Cc1nn(C)c(C)c1CN(C)S(=O)(=O)c1cccc2cccnc12`, -0.312%.
As for `COc1ccc(C2C3=C(CC(C)(C)CC3=O)N(CCN3CCOCC3)C3=C2C(=O)CC(C)(C)C3)cc1`, the “% Inhibition @ 10 uM” value was found to be 6.64%.
With `Cc1ccc(-n2nc(C)c(/C=N/c3ccc(S(=O)(=O)NCc4ccccc4)cc3)c2O)cc1`, the “% Inhibition @ 10 uM” value is -1.08%.
Next, `N#Cc1c(-c2ccc3c(c2)OCO3)cc(-c2ccccc2)nc1S`: 11.7%; `CC(=O)OC(C)(C)C#CCN1CCCCC1`: -0.268%; `CCCOc1cccc(OCC(=O)Nc2nc3ccccc3[nH]2)c1`: 2.02%.
With `Cc1cccn2c(=O)c(/C=N/CCO)c(NCc3ccccc3)nc12` the figure was 3.06%; with `N=c1cc2[nH]c3ccccc3sc-2cc1=O`, 49.8%; with `COc1ccc(N2C(=O)CC(N3CCC(C(N)=O)CC3)C2=O)cc1F` (stereo not drawn), -5.34%.
With `Cc1ccc(OCC(=O)Nc2ccccc2OC(F)F)cc1C` the figure was -1.61%; with `O=C(NCCCN1CCC(Cc2ccccc2)CC1)C1CCN(S(=O)(=O)N2CCCC2)CC1`, 0.514%.
Turning to `Cc1ccc(-c2cn3nc(N4CCC(C(=O)N(C)Cc5ccccc5)CC4)sc3n2)cc1`, the “% Inhibition @ 10 uM” value is 4.36%.
With `COc1ccc(C(=O)Nc2sc(C)c(-c3ccccc3)c2C#N)cc1OC`, the “% Inhibition @ 10 uM” value is given as 3.96%.
With `O=c1/c(=C/c2ccccc2)sc2nc(-c3cccs3)nn12` the figure was -5.2%; with `COc1cccc(CN2CCN(C3CCCC(C)C3)CC2)c1OC` (stereo not drawn), 4.31%; with `Fc1cccc(Cl)c1CN1CCOCC1`, 4.28%.
For `Oc1nnc(-c2ccccc2)c2ccccc12`, the “% Inhibition @ 10 uM” value was -0.999%.
Next, `CC(C)COc1ccc(/C=C2/NC(=O)N(Cc3ccc(F)cc3)C2=O)cc1`: 3.54%; `Cc1ccc(C(=O)CSc2nnc(-c3cccnc3)n2N)cc1`: -0.0626%.
For `CCOCCCNC(=O)c1cc2sc(Cl)cc2n1CC`, the “% Inhibition @ 10 uM” value is reported as -4.85%.
With `O=C(O)C1C2C=CC(O2)C1C(=O)Nc1ccc2c(c1)OCCO2` (stereo not drawn) the figure was -1.98%; with `CCn1c(C(=O)NCCCc2ccccc2)cc2sccc21`, -6.68%.
As to `CCCCNC(=O)CCNC(=O)c1ccc(C(C)(C)C)cc1`, the “% Inhibition @ 10 uM” value was -1.99%.
`N#CCNC(=O)[C@H](Cc1ccc2ccccc2c1)NC(=O)c1csc(-c2ccccc2[N+](=O)[O-])n1`: the “% Inhibition @ 10 uM” value worked out at 3.66%.
Next, `COC(=O)c1ccc(C2Oc3c(OC)cccc3C3CC(c4cccs4)=NN32)cc1` (stereo not drawn): -1.11%; `CCOc1ccc(-c2cc(C(=O)NC(C)CC)c3ccccc3n2)cc1` (stereo not drawn): -5.92%; `CC(C)n1c(N2CCCCCC2)nc2c1c(=O)n(C)c(=O)n2C`: -1.55%.
Next, `O=C(c1cc(S(=O)(=O)N2CCCCC2)ccc1Cl)N1CCCCC1`: -5.11%.
With `CC(NS(=O)(=O)c1ccc(CCC(=O)N2CCc3ccccc3C2)cc1)c1ccccc1` (stereo not drawn) the figure was 2.4%; with `CC(C)OCCCNC(=O)c1ccc(CSc2nc3cccnc3n2Cc2ccc(F)cc2)cc1`, 3.46%.
Consider `O=C(Nc1nc2c(Cl)cccc2s1)c1ccccc1F`, for which the “% Inhibition @ 10 uM” value was determined as 3.53%.
As for `Cc1ccc(/C=C/c2nc(N)nc(-c3ccccc3O)n2)o1`, the “% Inhibition @ 10 uM” value is listed as 2.31%.
For the molecule `Cc1ccc(-c2c(N3CCCCC3)c(=O)c2=O)cc1`, the “% Inhibition @ 10 uM” value came to 1.97%.
Next, `Cc1nc2c(-c3ccccc3)c(C)nn2c(C)c1CCC(=O)NCCCOC(C)C`: 1.26%; `CC1CCN(C(=O)CSc2nc(O)c3cnn(-c4ccc(F)cc4)c3n2)CC1`: -3.78%.
